In all, about 420,000 compounds went through this assay and about 64,000 (15%) were called active. The inconclusive results got no clear call from the source; some entries with a clear call stand among them for comparison. The call rests on the fitted dose curve; in most records, active means well fitted inhibition curve with a large enough effect; inconclusive means small, poorly fitted or top-dose-only effect; inactive means flat fitted curve, though single readings scatter. No potency is given beside an inconclusive call; the fits are too rough.
Assay: qHTS for Inhibitors of human tyrosyl-DNA phosphodiesterase 1 (TDP1): qHTS in cells in absence of CPT; further: nearly all actives have a fitted effect of over 55% in size
Conditions: DT40 Tdp1-/- hTDP1 cells, no CPT, ATP luminescence, 48 h; activity change, negative = growth inhibition: at 46.2 µM (top of the series) unless noted
Summary of the method: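 No-CPT arm: Tdp1-/-;hTDP1 DT40 cells (400/well) plus compounds, incubated ≥48 hr at 37 °C. Readout CellTiter-Glo luminescence.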
On the % scale 0 is the no-effect control and ±100 the full control effect; potency means the concentration at half of the fitted maximal effect; tags describe the fitted curve by direction and shape.

Row | SMILES | Potency | activity change, negative = growth inhibition
1 | CCC(=Nc1ccc(N)cc1)C1=C(O)C(C(=O)OC)C(C)(C)CC1=O (stereo not drawn) | inconclusive [inhibitor, single point] | 
2 | CCOC(=O)C1(Cc2ccccc2C)CCCN(Cc2ccc(NC(C)=O)cc2)C1 (stereo not drawn) | inconclusive [inhibitor, single point] | 
3 | COc1cc(NC(=O)NC(C)c2c(-n3cccc3)sc3c2CCCC3)cc(OC)c1OC (stereo not drawn) | inconclusive [inhibitor, single point] | 
4 | COc1ccc(N2C(=O)C(O)C2c2ccc(C)cc2)cc1 (stereo not drawn) |  | inactive: -27%
5 | CCc1noc(C)c1C(=O)N(CC)CC(=O)NCc1ccc(F)cc1 |  | inactive: -14.4%
6 | O=C(Nc1ccccc1)Nc1cccc(-c2cn3cccnc3n2)c1 | inconclusive [inhibitor, single point] | 
7 | O=C(CSc1nnc(-c2cccs2)n1-c1ccccc1)NCc1ccco1 |  | inactive: -11.9%
8 | CS(=O)(=O)c1ccc(N2CCN(c3ccccn3)CC2)c([N+](=O)[O-])c1 | inconclusive [inhibitor, single point] | 
9 | COc1cc(/C=N/NC(=O)COc2ccccc2[N+](=O)[O-])ccc1OC(=O)c1ccco1 | inconclusive [inhibitor, single point] | 
10 | CC(C(=O)Nc1ccc(F)c(F)c1F)N(C)CCOc1ccccc1 (stereo not drawn) |  | inactive: -8.26%
11 | CCc1ccccc1NC(=O)C1CCCN(S(=O)(=O)c2ccc3c(c2)CC(C)N3C(C)=O)C1 (stereo not drawn) | inconclusive [inhibitor, partial curve] | 
12 | CCC(C)Nc1nc(N)c([N+](=O)[O-])c(NC2CCCCC2)n1 (stereo not drawn) | inconclusive [inhibitor, partial curve] | 
13 | COC(=O)[C@@H]1C[C@@H](c2ccccc2)[C@H](C)C1(C)C | inconclusive [inhibitor, partial curve] | 
14 | N#Cc1c(-c2ccccc2)cc(C2CC2)nc1SCC(=O)O | inconclusive [inhibitor, single point] | 
15 | CCCn1c(O)c(N=Nc2ccc3ccccc3n2)c2ccccc21 | inconclusive [inhibitor, single point] | 
16 | CCOC(=O)c1ccc(NS(=O)(=O)CC)cc1 | inconclusive [inhibitor, partial curve, poor fit] | 
17 | CC1=N/C(=C\c2ccc([N+](=O)[O-])cc2)C(=O)N1c1cc(Cl)ccc1C | active: 9.2 µM | 
18 | c1ccc(C2Nc3ccccc3-c3nc4ccccc4n32)nc1 (stereo not drawn) | inconclusive [inhibitor, partial curve] | 
19 | Cc1ccc(C)c(NC(=S)N2CCCCCC2)c1 | active: 16.4 µM | 
20 | CC(NC(=O)c1cccs1)c1ccccc1 (stereo not drawn) |  | inactive: 3.93%
21 | COC(=O)Cc1ccc(NC(=S)NCCSc2ccc(Cl)cc2)cc1 | active: 20.6 µM | 
22 | CC(=O)Nc1ccc2nc(-c3cc(C)ccc3C)[nH]c2c1 | active: 3.26 µM | 
23 | CCc1cccc(-n2nnc(-c3nsc(NC(=O)c4cccs4)n3)c2C)c1 | inconclusive [inhibitor, single point] | 
24 | COc1ccc(C(=O)N2CCC3(CCCN(Cc4ccccc4)C3)CC2)cc1 |  | inactive: -27.2%
25 | N#Cc1ccc(CSc2nnc(-c3cccc(S(=O)(=O)N4CCCCC4)c3)o2)cc1 | inconclusive [inhibitor, single point] | 

Row | SMILES | Potency | activity change, negative = growth inhibition
26 | Cc1nc(CNC(=O)CC2C(=O)NCCN2Cc2cccc(Oc3ccccc3)c2)cs1 (stereo not drawn) | inconclusive [inhibitor, single point] | 
27 | COn1c(-c2ccc(Cl)cc2)nc2ncccc21 | inconclusive [inhibitor, single point] | 
28 | COc1ccc(S(=O)(=O)Nc2ccc(CC#N)cc2)cc1 |  | inactive: -13.3%
29 | COc1cc(CN2C[C@@H](CO)O[C@@H](n3cnc4c(NC5CCCC5)ncnc43)C2)cc(OC)c1OC | inconclusive [inhibitor, single point] | 
30 | O=C(C1CCCN(S(=O)(=O)c2ccc(Br)s2)C1)N1CCN(c2ccccc2F)CC1 (stereo not drawn) | active: 23.1 µM | 
31 | CCOc1ccc(CCNC(=O)c2ccc3c(c2)N(Cc2ccc(C)cc2)CCS3)cc1 | inconclusive [inhibitor, single point] | 
32 | CCSc1ccc(NC(=O)c2cccnc2)cc1 |  | inactive: -14.2%
33 | CCn1c(COc2ccc(C)cc2)nnc1SCC(=O)Nc1ccc(S(N)(=O)=O)cc1 |  | inconclusive: -32.3% [inhibitor]
34 | CC/C(=C(/c1ccccc1)c1ccc(OCC[N+](C)(C)C)cc1)c1ccccc1 | active: 23.1 µM | 
35 | CCOC(=O)c1cn(CC(=O)Nc2ccc(OC)cc2OC)nn1 | inactive | 
36 | CCCCCC(=O)N(CN1C(=O)CCC1=O)c1ccccc1 |  | inactive: -1.1%
37 | O=C(Nc1ccccc1Cl)N1CCN(c2ncccn2)CC1 |  | inactive: -4.45%
38 | OCn1c2ccccc2c2ccccc21 | inconclusive [inhibitor, partial curve] | 
39 | COc1ccc(C2=NOC(Cn3nc(-c4ccccc4)cc3C(=O)NCc3ccco3)C2)cc1 (stereo not drawn) |  | inactive: -0.158%
40 | O=S(=O)(NCCCCCCc1ccccc1)c1cccc2c(Cl)cccc12 | inconclusive [inhibitor, single point] | 
41 | COc1ccc(C(=O)N2CCCCC2c2cc(C(=O)Nc3ccccc3)no2)cc1 (stereo not drawn) | inconclusive [inhibitor, single point] | 
42 | CCN(C(=O)c1sc2nc3n(c(=O)c2c1C)CCCCC3)c1ccc(OC)cc1 | inconclusive [inhibitor, single point] | 
43 | COc1ccc(C)cc1NC(=O)NC(C)c1c(-n2cccc2)sc(C)c1C (stereo not drawn) | inconclusive [inhibitor, single point] | 
44 | O=C(/C=C/[C@H]1O[C@@H](n2cnc3c(NC(=O)c4ccccc4)ncnc32)[C@H](O)[C@@H]1O)NCc1ccccc1 |  | inactive: -11.2%
45 | CC(C)=CCC[C@H](C)CC1Cc2[nH]c(=S)[nH]c(=O)c2C(c2ccc(Cl)cc2)O1 (stereo partly drawn) | inconclusive [inhibitor, single point] | 
46 | O=C(Nc1ccccc1)c1ccc(S(=O)(=O)NCC2CCCO2)cc1 (stereo not drawn) |  | inactive: -22.8%
47 | CCOC(=O)c1c(C)[nH]c(CCC(=O)NC(C)c2ccccc2)c1C (stereo not drawn) | active: 18.4 µM | 
48 | CCN(CC)CCCNc1sc(S(=O)(=O)c2ccccc2)nc1S(=O)(=O)c1ccc(Cl)cc1 | inconclusive [inhibitor, single point] | 
49 | COc1ccc(C)cc1NC(=O)c1nn(C)c(C(=O)Nc2cc(C)ccc2OC)c1[N+](=O)[O-] | inconclusive [inhibitor, single point] | 
50 | CCOc1ccc(/C=N/Nc2nncc(-c3ccccc3)n2)cc1OC | active: 14.6 µM | 

Row | SMILES | Potency | activity change, negative = growth inhibition
51 | Cc1ccc(C2=NS(=O)(=O)N(C)C(C(=O)Nc3ccc(F)cc3F)=C2)cc1 | inconclusive [inhibitor, single point] | 
52 | COc1ccc(OC)c(NC(=O)c2cc(S(=O)(=O)N3CCCCC3)c[nH]2)c1 | inconclusive [inhibitor, single point] | 
53 | COC(=O)c1ccc(OCC(=O)NC2CCCCCCC2)cc1 | active: 16.4 µM | 
54 | O=S(=O)(c1ccccc1)c1nc(-c2ccccc2Cl)oc1NCCCN1CCOCC1 | active: 23.1 µM | 
55 | COc1cccc(CN2CCN(c3cccc(C(F)(F)F)c3)CC2)c1OC | inconclusive [inhibitor, single point] | 
56 | Cn1nnnc1SCCNCc1ccccc1OCc1ccccc1Cl | active: 13 µM | 
57 | CC1(c2nnc(-c3ccccc3)o2)CC(c2ccc([N+](=O)[O-])cc2)=NO1 (stereo not drawn) | active: 18.4 µM | 
58 | CC(=O)c1ccc(Nc2cc(C)nc3ccccc23)cc1 | active: 13 µM | 
59 | CC(=O)N1c2ccc(S(=O)(=O)NCCC(=O)N(C)C3CCCCC3)cc2CC1C (stereo not drawn) | inconclusive [inhibitor, single point] | 
60 | Cc1ccc(Cl)cc1NC(=O)Cn1c(=O)n(CCC(=O)NCc2ccc3c(c2)OCO3)c(=O)c2sccc21 |  | inactive: 0.159%
61 | CCn1cc(S(=O)(=O)c2ccc(OC)cc2)c(=O)c2cc(F)c(N3CCN(C)CC3)cc21 |  | inactive: 11.5%
62 | O=C(NCCN1CCOCC1)c1cc(-c2ccc(Cl)cc2)on1 | inconclusive [inhibitor, single point] | 
63 | CCOc1cc(/C=N/O)cc(Br)c1OC |  | inactive: -23.1%
64 | CN(c1ccc(C(=O)Nc2cccc([N+](=O)[O-])c2)cc1)S(C)(=O)=O | inconclusive [inhibitor, single point] | 
65 | C(=Nc1ccc2ccccc2n1)c1cccnc1 |  | inactive: -11.2%
66 | CC(C)Cc1ccc(S(=O)(=O)N2CCN(Cc3noc(CCC(=O)N4CCCCC4)n3)CC2)cc1 | active: 20.6 µM | 
67 | O=C(NCCS(=O)(=O)N1CCN(c2ccc(F)cc2)CC1)c1ccco1 |  | inactive: -7.11%
68 | COc1ccc([C@H]2/C=C\CN(C(=O)[C@H](Cc3ccccc3)NC(=O)OCC3c4ccccc4-c4ccccc43)CC(=O)N2Cc2ccc(F)cc2)cc1 | inconclusive [inhibitor, single point] | 
69 | Nc1nc(NCc2ccco2)nc(N2CCN(Cc3ccccc3)CC2)c1[N+](=O)[O-] | active: 18.4 µM | 
70 | Cc1c(C(=O)Nc2ccc(-n3c(C)nc4ccccc4c3=O)cc2)cccc1[N+](=O)[O-] | active: 7.31 µM | 
71 | O=S(=O)(c1ccc(-c2n[nH]c(=S)o2)cc1)N1CCCC1 |  | inactive: -13.2%
72 | Cc1ccnc(NC(=O)CCC(=O)N(CC(=O)NC2CCCCC2)Cc2cccs2)c1 | inconclusive [inhibitor, partial curve, poor fit] | 
73 | Cc1nc2cc(-c3cccc(F)c3)nn2c(C)c1CCC(=O)N1CCN(c2ccccn2)CC1 |  | inactive: -20.8%

Source: PubChem BioAssay AID686978 (National Center for Advancing Translational Sciences (NCATS), 2013)
